From paper PMC4336329 (PLoS ONE, 2015)
Among all 310,000 compounds or so, about 2,200 (0.71%) showed an effect of 50% or more. Effects have a minus sign here. The list shows a part of the results.

Target: human ether-à-go-go-related gene (hERG) potassium channel (human, UniProt Q12809)
Assay: primary screen, population patch clamp on CHO cells stably expressing hERG

Chain of human ether-à-go-go-related gene (hERG) potassium channel (Q12809 whole entry, looked up): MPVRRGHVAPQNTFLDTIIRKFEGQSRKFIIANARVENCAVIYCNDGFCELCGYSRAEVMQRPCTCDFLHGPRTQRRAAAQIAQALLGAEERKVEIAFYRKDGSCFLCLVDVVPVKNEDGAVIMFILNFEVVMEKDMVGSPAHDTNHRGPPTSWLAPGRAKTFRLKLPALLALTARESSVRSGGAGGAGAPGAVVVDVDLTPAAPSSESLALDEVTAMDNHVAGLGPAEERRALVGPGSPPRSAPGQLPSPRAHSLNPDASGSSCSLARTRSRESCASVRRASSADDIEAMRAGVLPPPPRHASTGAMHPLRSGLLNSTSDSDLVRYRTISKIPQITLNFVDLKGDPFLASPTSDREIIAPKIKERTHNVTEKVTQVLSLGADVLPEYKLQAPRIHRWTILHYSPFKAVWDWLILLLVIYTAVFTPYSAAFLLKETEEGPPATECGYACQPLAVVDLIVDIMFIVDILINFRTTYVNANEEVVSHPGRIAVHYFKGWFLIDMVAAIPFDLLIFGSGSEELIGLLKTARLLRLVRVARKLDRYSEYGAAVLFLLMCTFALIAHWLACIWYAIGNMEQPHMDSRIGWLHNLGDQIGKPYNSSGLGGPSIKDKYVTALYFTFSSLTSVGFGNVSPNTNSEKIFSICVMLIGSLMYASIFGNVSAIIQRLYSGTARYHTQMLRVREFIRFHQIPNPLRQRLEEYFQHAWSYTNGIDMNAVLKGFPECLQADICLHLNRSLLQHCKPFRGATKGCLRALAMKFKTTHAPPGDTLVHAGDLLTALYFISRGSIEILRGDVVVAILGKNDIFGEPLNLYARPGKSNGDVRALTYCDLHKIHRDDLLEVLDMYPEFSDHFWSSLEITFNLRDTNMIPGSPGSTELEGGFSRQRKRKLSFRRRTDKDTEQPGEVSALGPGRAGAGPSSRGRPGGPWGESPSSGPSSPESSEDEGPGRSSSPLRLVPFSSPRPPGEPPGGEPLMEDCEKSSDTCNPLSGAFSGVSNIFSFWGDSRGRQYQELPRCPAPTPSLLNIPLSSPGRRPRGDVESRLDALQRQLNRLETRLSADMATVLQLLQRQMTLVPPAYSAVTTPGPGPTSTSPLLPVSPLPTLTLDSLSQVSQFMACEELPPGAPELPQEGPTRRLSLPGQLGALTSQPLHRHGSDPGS

Compound	hERG current change (%, negative = inhibition) at 1uM [%]
COc1ccccc1-n1c(SCC(=O)N2CCCCC2)nnc1-c1ccccc1O	-0.676
CCCS(=O)(=O)N1CCC(C(=O)N2CCC(Cc3ccccc3)CC2)CC1	-16
COc1cc(CNC2CCCC2)cc(Br)c1OCC(=O)Nc1ccccc1C	2.93
O=C(NNc1nc(-c2ccc(F)cc2)cs1)c1ccccc1	10.2
Cc1c(OCC(N)=O)ccc2c(-c3ccccc3)cc(=O)oc12	14.3
O=C(NNC(=O)c1cccnc1)Nc1cccc2ccccc12	11.4
CCCOc1ccc(-c2nnc(-c3ccncc3)o2)cc1	5.63
Cc1cnc(C(=O)Nc2ccc(N3CCOCC3)cc2)cn1	12
CCOCCCNC(=O)CCc1nnc2ccc(N3CCCCC3)nn12	13.5
CNC(=O)NC(=O)COC(=O)c1cccc(S(=O)(=O)N2CC3(C)CC2CC(C)(C)C3)c1 (stereo not shown)	11.2
COc1ccc(NC(C)=O)cc1S(=O)(=O)NC1CCSc2ccccc21 (stereo not shown)	-3.2
COCCNC(=O)CN(c1ccc(C)cc1)S(=O)(=O)c1ccc(SC)cc1	-11.2
Cc1ccccc1-n1ncc2c1CC(C)(C)CC2NC(=O)CCC(F)(F)F (stereo not shown)	2.99
COCc1ccc(C(=O)N2CCC(CCC(=O)Nc3cccc(C)c3)CC2)s1	7.89
Cc1noc(C)c1C(=O)NC(C)C12CC3CC(CC(C3)C1)C2 (stereo not shown)	2.85
COC(=O)c1nc(C(=O)OC)c(C(=O)OC)nc1C(=O)OC	10.5
Cl.O=C(NCCN1CCCC1)c1ccc(Cl)cc1Cl	16.6
O=C(O)c1cnc(-c2ccccc2)nc1Sc1cccc(Cl)c1	23.8
COC(=O)C1=C[C@@H](C(=O)OC)[C@@H]2C3=C(C(=O)[C@]2(C)NC(=O)c2ccccc2)[C@H](C)n2c(=O)n(C)c(=O)n2[C@@H]3C1	4.58
O=C(COc1ccc2ccccc2c1Br)NNC(=O)Nc1ccccc1	12.4
CN=c1scc(-c2ccc([N+](=O)[O-])cc2)n1/N=C/c1ccco1	5.91
Cc1cccc(N(O)C(=O)Nc2cccc(Cl)c2)c1	14

Compound	hERG current change (%, negative = inhibition) at 1uM [%]
COc1cccc(N2C(=O)CC(N3CCc4ccccc4C3)C2=O)c1 (stereo not shown)	13.1
Cc1cc(C)c(S(=O)(=O)c2ccc(Cl)cc2C)c(Cl)n1	17
O=C(NCc1ccccc1Cl)C1CCN(S(=O)(=O)N2CCOCC2)CC1	20.2
CCOCCn1c(N2CCCC2)nc2c1c(=O)[nH]c(=O)n2C	17.3
CC(=O)Nc1ccc(NC(=O)C2CCCN2C(=O)NC2CCCCC2)cc1 (stereo not shown)	12.2
CCCn1c(=O)c(C(=O)NCCc2ccc(OC)c(OC)c2)c(O)c2ccccc21	10.8
Cc1noc(C)c1CSCC(=O)OCC(=O)Nc1sccc1C#N	7.06
CN(C)c1ccc(/C=C/c2nc3ccccc3c(=O)n2CCO)cc1	4.16
O=C(Nc1cccc(S(=O)(=O)N2CCCCC2)c1)Nc1ccc(Cl)cc1Cl	11
O=C(COc1ccccc1Cl)Nc1ccc(N2CCCC2)cc1	5.83
C=CCc1ccc(OCC(O)CN2CCC(Cc3ccccc3)CC2)c(OC)c1.Cl (stereo not shown)	-75
COc1ccc2[nH]c(=O)c(CN(C3CCCCC3)C(c3nnnn3Cc3ccco3)C(C)C)cc2c1 (stereo not shown)	12.3
CCOC(=O)c1c(NC(C)=O)sc2c(O)c(Br)cc(Br)c12	6.01
OCCC1CN(CC(c2ccccc2)c2ccccc2)CCN1C1CCCC1 (stereo not shown)	-74.5
CCCS(=O)(=O)N1CCN(CC2CC3C=CC2C3)CC1.O=C(O)C(=O)O (stereo not shown)	8.96
COc1ccc(NC(=O)CC2C(=O)N(C)C(=S)N2Cc2cccs2)cc1 (stereo not shown)	-2.48
CCn1nnnc1SCC(=O)Nc1ccc(OC)cc1	9.53
COc1ccccc1N1CCN(S(=O)(=O)c2ccccc2F)CC1	-7.11
CC1(C)C(=O)Nc2ccccc2N1C(=O)COC(=O)c1cc(S(=O)(=O)N2CCOCC2)ccc1F	14.7
COc1ccc2nc3cc(Cl)ccc3c(Nc3cc(CN4CCCC4)c(O)c(CN4CCCC4)c3)c2n1.O=P(O)(O)O	11.5
O=C(O)C1C2CCC(O2)C1C(=O)Nc1cccc(Br)c1 (stereo not shown)	19.9
COc1ccc(CN2CC(C(=O)NCc3ccc4c(c3)OCO4)CC2=O)cc1 (stereo not shown)	-13.5

Compound	hERG current change (%, negative = inhibition) at 1uM [%]
CCCCCCCCC(=O)O	15.5
O=C(/C=C/c1ccc([N+](=O)[O-])cc1)N1CCN(S(=O)(=O)c2ccccc2)CC1	-11.8
O=C(Nc1ccccc1)c1ccc(-c2ccc(F)cc2)s1	13.4
O=C(c1ccc(-c2ccccc2)cc1)C1CCCN(Cc2ccncc2)C1 (stereo not shown)	2.06
O=C(Cc1ccccc1)NNS(=O)(=O)c1ccc([N+](=O)[O-])cc1	4.45
Cc1ccc(OCCn2c(C)nc3ccccc32)cc1	13
CCOc1cc(/C=N\NC(=O)OC(C)(C)C)ccc1OC(=O)c1ccco1	13.3
O=C(NC1CCCC1)C(c1ccco1)N(Cc1ccccc1)C(=O)c1csnn1 (stereo not shown)	-2.6
CC(C)Cn1c(SCC(=O)Nc2ncccn2)nc2ccccc21	9.53
Cc1ccc(S(=O)(=O)N2CCOC2CNC(=O)C(=O)NCC(C)C)cc1 (stereo not shown)	6.55
COc1cc(C(=O)NC(=S)Nc2ccc(Cl)c(C(=O)O)c2)cc(OC)c1OC	8.38
COc1cccc(CNC23CC4CC(CC(C4)C2)C3)c1OCc1ccccc1.Cl	3.29
Cc1onc(-c2ccccc2)c1CNS(=O)(=O)c1ccccc1	11.9
Cc1ccc(Cl)cc1NS(=O)(=O)c1c(C)[nH]c(=O)[nH]c1=O	1.66
COC(=O)c1cccc(NC(=O)c2cccc(N3C(=O)CCC3=O)c2)c1	3.15
O=C(NCCN1C(=O)S/C(=C\c2ccc(Cl)c([N+](=O)[O-])c2)C1=O)C1=COCCO1	7.93
COC(=O)C1=CN(Cc2ccc(OC)cc2)C=C(C(=O)OC)C1c1cccs1	10.5
N#Cc1ccccc1S(=O)(=O)N1CCN(C(=O)[C@@H]2CCCN2C(=O)c2cccs2)CC1	0.267
Cc1cccc(NC(=O)Cn2cc([N+](=O)[O-])cn2)n1	6.91
CCCNNC(=O)C(O)(c1ccccc1)c1ccccc1	15.1
COC(=O)c1cnn2c(C(F)(F)F)cc(-c3ccccc3)nc12	8.63
Cc1cc(OCC(=O)NCCc2c[nH]c3ccccc23)c2c(C)c(C)c(=O)oc2c1	6.8

Compound	hERG current change (%, negative = inhibition) at 1uM [%]
O=C(C1CC(=O)N(c2ccccc2)C1)N1CCN(c2ccc(F)cc2)CC1 (stereo not shown)	-8.63
COc1ccc(/C=C/C(=O)NC(=S)NNC(=O)Cc2cccs2)cc1OC	11.9
Cc1c(C(=O)N2CCN(c3ccccc3F)CC2)sc2nc(-c3ccccc3)cn12	2.98
CN1C(=O)C(C)(C)c2cc(S(=O)(=O)NCc3ccc(C(=O)NCc4ccco4)cc3)ccc21	12.6
COc1cccc(CN2CCNCC2)c1OC	12.2
O=C(CN1CCN(Cc2ccccc2)CC1)Nc1ccc(N2CCOCC2)cc1	8.88
COc1cccc(C(=O)NCCS(=O)(=O)N2CCc3ccccc3C2)c1	-1.2
C=CCSc1nc(N)c2c3c(sc2n1)CN(C)CC3	-4.65
COc1cccc2c(=O)c3ccccc3oc12	13.5
CCOc1ccc(Oc2ccccc2NC(=O)CN2C(=O)NC3(CCCC3)C2=O)cc1	4.63
CC12CCC(C(=O)Nc3ccccc3-n3cccc3)(CC1=O)C2(C)C (stereo not shown)	5.32
COc1ccc(N2CCN(CC(O)COc3cc(C)cc(C)c3)CC2)cc1.Cl (stereo not shown)	-17.5
Cc1cccc(OCC(=O)Nc2ccc(S(=O)(=O)Nc3ccccn3)cc2)c1	17.3
CCn1c(=NC(=O)CSC(C)=O)sc2cc(F)ccc21	-3.73
CC(C)C[C@H]1CN=C(Nc2ccccc2)N1CCCC1CCCC1	-24.5
NC(=O)CSc1oc(-c2cccs2)nc1S(=O)(=O)c1ccccc1	1.53
c1ccc(-n2cnc3cc(NCc4ccco4)ccc32)cc1	-3.38
CCCc1ccc2oc(C(=O)N(C)Cc3cnccn3)c(C)c2c1	1.37
CC(C)[C@H](NC(=O)c1ccc(F)cc1)C(=O)N(C)Cc1cccs1	3.19
C=C(C)C1CC=C(C)/C(=N/NC(=O)c2ccccc2[N+](=O)[O-])C1 (stereo not shown)	12.4
COC(=O)C1C(=O)c2c(n[nH]c2C)CC1(C)C (stereo not shown)	20.9
CC1CC(C)(C)NC(=S)N1CCCC(=O)N1CCN(c2ccc(F)cc2)CC1 (stereo not shown)	-4.06
